Experimental data: PMC4336329 (PLoS ONE, 2015)
In all, about 310,000 compounds went through this assay and about 2,200 (0.71%) showed an effect of 50% or more. The effect is printed as a negative number. This is one part of the list.

target: human ether-à-go-go-related gene (hERG) potassium channel (human, UniProt Q12809); experiment: primary screen, population patch clamp on CHO cells stably expressing hERG
Sequence (Q12809 whole entry, looked up): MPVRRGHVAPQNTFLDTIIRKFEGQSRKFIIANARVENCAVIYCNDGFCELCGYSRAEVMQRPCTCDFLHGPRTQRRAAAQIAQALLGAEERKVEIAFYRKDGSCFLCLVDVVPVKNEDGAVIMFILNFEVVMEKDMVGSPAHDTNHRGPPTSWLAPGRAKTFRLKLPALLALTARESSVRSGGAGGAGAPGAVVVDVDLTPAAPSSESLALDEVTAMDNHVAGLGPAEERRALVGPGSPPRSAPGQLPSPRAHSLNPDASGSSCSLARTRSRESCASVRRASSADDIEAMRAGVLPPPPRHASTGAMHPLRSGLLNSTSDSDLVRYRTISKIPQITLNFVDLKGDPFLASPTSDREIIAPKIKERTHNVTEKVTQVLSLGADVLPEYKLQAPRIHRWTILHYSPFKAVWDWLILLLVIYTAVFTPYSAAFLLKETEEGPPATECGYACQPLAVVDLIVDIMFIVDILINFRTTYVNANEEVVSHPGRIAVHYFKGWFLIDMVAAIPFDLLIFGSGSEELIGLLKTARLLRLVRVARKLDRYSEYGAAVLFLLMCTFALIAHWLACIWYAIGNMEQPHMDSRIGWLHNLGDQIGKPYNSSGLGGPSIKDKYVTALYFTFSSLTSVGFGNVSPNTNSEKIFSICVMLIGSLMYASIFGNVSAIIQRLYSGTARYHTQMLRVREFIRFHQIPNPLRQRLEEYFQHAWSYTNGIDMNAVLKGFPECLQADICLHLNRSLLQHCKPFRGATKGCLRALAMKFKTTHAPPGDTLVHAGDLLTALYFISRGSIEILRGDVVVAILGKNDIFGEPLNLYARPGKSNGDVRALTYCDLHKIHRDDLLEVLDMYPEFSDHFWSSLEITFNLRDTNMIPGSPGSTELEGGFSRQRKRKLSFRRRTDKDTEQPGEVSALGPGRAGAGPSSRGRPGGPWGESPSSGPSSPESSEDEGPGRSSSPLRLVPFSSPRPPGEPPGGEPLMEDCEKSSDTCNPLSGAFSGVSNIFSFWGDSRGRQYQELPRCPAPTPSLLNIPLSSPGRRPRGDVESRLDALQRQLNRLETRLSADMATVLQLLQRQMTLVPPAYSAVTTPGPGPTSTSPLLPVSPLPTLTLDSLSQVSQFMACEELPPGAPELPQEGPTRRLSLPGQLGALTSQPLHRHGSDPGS

Structure (SMILES)	hERG current change (%, negative = inhibition) at 1uM
COc1ccc(-c2cc(C(=O)N(C)Cc3ccccc3F)c3ccccc3n2)cc1OC	3.88%
CCC(CC)C(=O)Nc1cc(C(=O)OC)cc(C(=O)OC)c1	1.94%
CCCCCCc1nc(C(N)=O)c2[nH]c(=O)n(-c3ccc(OC)cc3OC)c2n1	12%
O=C(CCC(=O)Nc1cc(C(F)(F)F)ccc1Cl)N/N=C\c1cc([N+](=O)[O-])ccc1O	9.8%
CN(CC(=O)Nc1ccccc1Br)C(=O)COc1cccc2c1OC(C)(C)C2	10.9%
Nc1c(C(=O)OCC(=O)Nc2ccc(OC(F)F)cc2)[nH]c(=O)[nH]c1=O	-0.461%
CC1CN(C(=O)COc2coc(CN3CCc4ccccc4C3)cc2=O)CC(C)O1 (stereo not drawn)	10.5%
COc1ccccc1N1CCN(S(=O)(=O)CCNC(=O)c2cc(OC)c(OC)c(OC)c2)CC1	9.08%
Cc1cc(C)c2c(-n3cccc3)c(C(=O)O)sc2n1	9.5%
Cc1nn(-c2ccccc2)c(C)c1/C=N/NC(=O)CSc1nnc(SCc2ccccc2Cl)s1	-15%
COc1cc(CNn2c(C)n[nH]c2=S)cc(Cl)c1OCc1ccc(F)cc1	15.9%
O=C(O)CC(CC(=O)Nc1ccc(C(=O)O)cc1)c1ccccc1 (stereo not drawn)	14.4%
NC(=S)Nc1ccc(C(F)(F)F)cc1Cl	11.9%
CCC(C(=O)NCc1ccco1)n1nc(-c2ccc(OC)cc2)ccc1=O (stereo not drawn)	0.708%
CN(C)CCOC1c2ccccc2C=Cc2ccccc21.O=C(O)/C=C\C(=O)O	12.3%
COc1ccc(OCC(O)Cn2c(N3CCCCC3)nc3c2c(=O)n(C)c(=O)n3C)cc1 (stereo not drawn)	0.4%
COc1ccc(C2=NS(=O)(=O)N(C)C(C(=O)N3CCC(C(N)=O)CC3)=C2)cc1	-8.49%
COc1ccc(-c2cnn3cc(-c4cccc(Cl)c4)cnc23)cc1	11.9%
COC(CNC(=O)c1cn(C)c2ccc(S(=O)(=O)N3CCOCC3)cc2c1=O)OC	12.9%
CCCC(C(=O)NC1CCCC1)N(CC1CCCO1)C(=O)CNS(=O)(=O)c1ccc(F)cc1 (stereo not drawn)	7.49%
O=C(NCC(c1ccco1)N1CCN(c2ccccc2)CC1)C(=O)NC1CCCC1 (stereo not drawn)	6.06%
COc1ccc([N+](=O)[O-])cc1C(=O)NCCOc1ccc(Cl)cc1	4.88%
Cc1cc(C)cc(N(C(=O)Cc2cccs2)C(C(=O)NC2CCCCC2)c2ccccn2)c1 (stereo not drawn)	-18.4%
COc1cc(C(=O)NCCN=C2NS(=O)(=O)c3ccccc32)cc(OC)c1OC	13.2%
Cc1ccc2ccc3ccc(C)nc3c2n1	10.3%
CC1(C2CC2)NC(=O)N(CC(=O)Nc2ccc(C(F)(F)F)cc2)C1=O (stereo not drawn)	4.62%
O=C(c1ccc(NS(=O)(=O)c2ccccc2)cc1)N1CCN(Cc2ccc3c(c2)OCO3)CC1	10.2%

Structure (SMILES)	hERG current change (%, negative = inhibition) at 1uM
O=C(c1ccc(F)cc1)c1ccc(CN2C(=O)c3ccccc3C2=O)o1	4.32%
COc1ccc(-c2nc3ccccc3c(=O)o2)cc1OC	18%
Cc1cccc(OCC(=O)N2CCC3(CC2)CC(=O)c2ccccc2O3)c1	-6.58%
CNCc1c(OCc2ccc(F)cc2)ccc2ccccc12.Cl	-2.06%
COc1ccc(CN(C)CC(=O)Nc2ccccc2C(=O)NC2CC2)cc1OC	-3.84%
CCOc1ccc(N/C(N)=N/c2nc(C)c(C)c(=O)[nH]2)cc1	8.39%
COc1ccc(C(=O)NNS(=O)(=O)c2ccccc2)cc1OC	9.24%
CN(C)S(=O)(=O)c1ccc(NC(=O)c2cc(F)c(F)cc2Cl)cc1	-1.82%
COCc1ccc(C(=O)N2CCCC(Nc3ccc(C(C)C)cc3)C2)o1 (stereo not drawn)	3.15%
Cc1nc2ccccc2n1C(=O)c1ccccc1[N+](=O)[O-]	3.81%
O=C(CCNS(=O)(=O)c1ccc(Br)cc1)NCc1ccc(F)cc1	1.29%
COCCCNC(=O)CSC1=Nc2ccccc2C2=NC(Cc3c[nH]c4ccccc34)C(=O)N12 (stereo not drawn)	9.24%
Cc1cc(C)cc(OCc2nnc(SCC(=O)OC3CCCCC3)o2)c1	-0.111%
CCn1c(=O)n(CC)c2cc(N3CCCC3)c(NC(=O)c3ccccc3F)cc21	6.41%
COC(c1ccccc1)c1nnc(CCC(=O)N2CCN(Cc3cccs3)CC2)o1 (stereo not drawn)	11.8%
CCC(C)NC(=O)Cc1c(C)c2cc3c(cc2oc1=O)OC(C)(C)CC3 (stereo not drawn)	15.9%
CC(C)Nc1nc(Cl)nc(NCCOc2ccccc2)n1	10%
OC(C#CCCN1CCCCC1)(c1ccccc1)c1ccccc1	1.64%
CC(=O)OC1COC(N2CCc3cc(Br)c([N+](=O)[O-])cc32)C(OC(C)=O)C1OC(C)=O (stereo not drawn)	15.2%
O=C(O)Cc1ccc(NC(=O)C2CCCCC2C(=O)O)cc1 (stereo not drawn)	17.7%
COC(=O)c1ccc(C(=O)NC(=S)Nc2nc3c(s2)CC(C)CC3)cc1 (stereo not drawn)	4.92%
CCN(CC)CCCNC(=S)Nc1ccc(Br)cc1	-8.09%
CCCCn1c(N)c(N(CCOC)C(=O)c2ccc(F)c(S(=O)(=O)N3CCOCC3)c2)c(=O)[nH]c1=O	9.04%
CCOc1ccc(C(=O)Nc2cc(-c3nc4ccccc4[nH]3)ccc2C)cc1[N+](=O)[O-]	-6.65%
N#Cc1ccc(NC(=O)CN2CCCCCC2)cc1Cl	0.805%
CCOc1nnnc2c1sc1nc(N3CCOCC3)c3c(c12)CCCC3	3.32%
COc1ccc(N(CC(=O)Nc2ccccc2C)S(=O)(=O)c2c(C)[nH]c(=O)[nH]c2=O)cc1	11.5%
